Measured values from PubChem BioAssay AID1963576 (National Center for Advancing Translational Sciences (NCATS), 2024).
Screen size: about 46,000 compounds; about 60 (0.1%) were called active. Roughly 3% stayed inconclusive and do not appear here. Calls follow the shape of the dose curve; as a rule, active = well fitted inhibition curve with a large enough effect; inconclusive = small, poorly fitted or top-dose-only effect; inactive = no such curve, though single readings can be large or run the other way. The list shows a part of the results.

assay: Primary qHTS assay for Inhibitors of ovarian cancer metastasis using an organotypic tumor microenvironment (TME) model.; also: nearly all actives have a fitted effect of over 65% in size;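 as to activity change, negative = inhibition: plate controls were DMSO wells for no effect and tomatine positive control wells for full effect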; settings: SKOV3ip1-GFP adhesion/invasion on 3D omental model, fluorescence; series mostly up to 45.8 µM; activity change, negative = inhibition: at the top concentration
Summary of the method: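 Primary human omental fibroblast/mesothelial 3D culture pre-formed 48 h. SKOV3ip1-GFP cells added with compounds (0.36-46 umol/L), incubated 2 h RT/16 h 37 C, fixed; GFP cells quantified at 488/509 nm.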

Compound	activity change, negative = inhibition	outcome
Cn1c(SCC(N)=O)nc2c([nH]c3ccccc32)c1=O	inactive: 6.83%	
O=C(O)c1ccc(Nc2nc(-c3ccccc3)c3cc(Br)ccc3n2)cc1	inactive: -8.95%	
Clc1ccccc1Cn1cccc1C1=NC(Cc2ccccc2)CO1 (centres undefined)		inactive
COc1ccc(-c2nc3ccc(NS(C)(=O)=O)cc3o2)cc1	inactive: -3.92%	
Cc1ccc(CNC(=O)c2cc3sccc3n2Cc2ccc(F)cc2)cc1	inactive: 36.3%	
CCC(=O)N1CCc2cc(S(=O)(=O)CCC(=O)N3CCN(c4ccccc4F)CC3)ccc21	inactive: 8.73%	
Cc1ccc(C)c(Cn2nnc(C(=O)NCc3ccccc3)c2N)c1	inactive: -1.39%	
CN1CCN(CCCN2c3ccccc3Sc3ccc(Cl)cc32)CC1	inactive: 15.9%	
CCN(c1ccccc1)c1cc(NC)[n+](C)c(C)n1	inactive: -15.5%	
CCC(CC)C(=O)N1CCc2cc(OC)c(OC)cc2C1COc1ccccc1OC (centres undefined)	inactive: -2.75%	
CC(=O)c1ccc(NS(=O)(=O)c2ccc3[nH]c4c(c3c2)CCCCCC4)cc1		inactive
CCOc1ccc(CNC(=O)c2sc3nc(C)cc(C)c3c2-n2cccc2)cc1	inactive: -4.15%	
Cc1ccc(NC(=O)CN2C(=O)CCc3cc(S(=O)(=O)N4CCOCC4)ccc32)c(C)c1		inactive
Cc1cc2oc(C(=O)Nc3nc(-c4ccccc4)ns3)c(C)c2cc1Cl	inactive: -13.6%	
CN1CCN(C(CNC(=O)C(=O)Nc2ccc(F)cc2)c2cccnc2)CC1 (centres undefined)	inactive: -4.88%	
O=C(c1ccc2c(c1)N(Cc1cccc(Cl)c1)C(=O)c1ccccc1S2(=O)=O)N1CCN(c2cccc(C(F)(F)F)c2)CC1	inactive: 0.621%	
COc1ccc(-c2nn(C)c3sc(C(=O)N4CCN(c5cc(Cl)ccc5C)CC4)cc23)cc1OC	inactive: 7.04%	
CCOc1ccc(-c2nonc2NC(=O)COc2ccc(C)c(C)c2)cc1OCC	inactive: 3.14%	
Cc1nc2cc(-c3cccc(F)c3)nn2c(C)c1CCC(=O)NC1CCCCC1	inactive: 10.9%	
CCOc1ccc(NC(=O)CSc2nnc(NC(=O)Nc3ccccc3)s2)cc1	inactive: 2.01%	
Cc1ccc(Cn2c(=O)n(Cc3ccc(Cl)cc3)c(=O)c3cccnc32)cc1		inactive
COc1ccc(CCNC(=O)Cn2c(=O)c3cccn3c3ccc(F)cc32)cc1OC		inactive

Compound	activity change, negative = inhibition	outcome
COc1ccc(C(=O)CCC(=O)Nc2cccc(C(C)=O)c2)cc1	inactive: 5.97%	
CCOc1ccc(-c2cnc(NCc3cccc(Cl)c3)n2C)cc1	inactive: -0.707%	
COc1cccc(NC(=O)C(=O)NCC(c2cccnc2)N2CCN(c3ccccc3)CC2)c1 (centres undefined)	inactive: -1.61%	
Cc1ccccc1-n1nc(CO)c(C(=O)NCCc2ccccc2)n1		inactive
Cc1cccc(CSc2cn(CC(=O)N3CCCCCC3)c3ccccc23)c1	inactive: -15.8%	
CCOC(=O)CSc1nc2ccc(NC(=O)COc3ccccc3)cc2s1	inactive: 29.5%	
COc1ccc(OC)c(CNc2ncnc3onc(-c4ccc(Cl)cc4)c23)c1		inactive
CC1CCc2c(sc(NC(=O)c3ccccc3)c2C(=O)Nc2ccccc2)C1 (centres undefined)	inactive: 7.9%	
O=C(NCc1ccc(Cl)cc1)c1cnc2sc(N3CCCCCC3)nn2c1=O	inactive: 0.613%	
CCCOc1ccc(-c2cccc(NS(=O)(=O)c3cc(OC)ccc3OC)c2)nn1	inactive: 0.694%	
O=C(CCC(=O)N1Cc2ccccc2Oc2ncccc21)NCc1ccccc1Cl	inactive: 2.95%	
CCN(CC)c1ccc(NC(=O)c2cnn3c(C(F)F)cc(-c4ccccc4)nc23)cc1		inactive
COc1ccc(Cl)cc1NC(=O)C1CCN(c2ncnc3c2nc2n3CCCCC2)CC1	inactive: 2.6%	
Nc1nc(=S)c2[nH]cnc2[nH]1	inactive: -28.2%	
COc1ccc(OC)c(C2CC(=O)N(c3cccc(C)c3)C3=C2C(=O)OC3)c1 (centres undefined)		inactive
CCOc1ccc(C(=O)Nc2ccc(S(=O)(=O)N(Cc3ccccc3)c3ccccc3)cc2)cc1	inactive: 1.12%	
O=C(COc1ccccc1)Nc1ccc(OCc2cc(=O)n3ccsc3n2)cc1		inactive
COCCNC(=O)CSc1nc(-c2ccc(F)cc2)[nH]c1-c1ccc(Cl)cc1	inactive: -5.79%	
COc1ccc(OC)c(NC(=O)C2CCN(S(=O)(=O)c3ccc(C)cc3)CC2)c1	inactive: 17.7%	
Cc1cc(N2CCCCC2)nc2ccc(NC(=O)c3ccc(F)cc3)cc12	inactive: -9.34%	
Cc1cccc(CC(=O)NC2CC(=O)N(c3cccc(F)c3)C2)c1 (centres undefined)	inactive: -0.638%	
COc1cccc(N2C(=O)C(CC(=O)Nc3cccc(F)c3)N(C(C)C)C2=O)c1 (centres undefined)	inactive: 14.2%	

Compound	activity change, negative = inhibition	outcome
CCOC(=O)c1c(NC(=O)CSc2cn(CCNC(=O)c3ccc(OCC)cc3)c3ccccc23)sc2c1CCCC2	inactive: 7.81%	
COc1ccccc1N1CCN(S(=O)(=O)c2ccc(-c3cc(C(F)(F)F)on3)s2)CC1	inactive: 12.2%	
CNS(=O)(=O)c1cn(CC(=O)Nc2ccc(OC)c(Cl)c2)cc1S(=O)(=O)NC	inactive: 1.93%	
O=C(CSc1nc2cc3ccccc3cc2[nH]1)Nc1cccc(C(F)(F)F)c1	inactive: -4.51%	
CC(C)CCNC(=O)C(=O)Nc1c2c(nn1-c1ccccc1)CS(=O)(=O)C2	inactive: 17.5%	
CN(C(=O)CSc1nc2ncccc2o1)c1ccc(F)cc1	inactive: -23.5%	
Cc1cc(F)ccc1Nc1nc2ccccc2n2nnnc12	inactive: -0.69%	
CCN(c1ccccc1)c1nnc(NC(=O)Nc2cccc(C(F)(F)F)c2)s1		inactive
CC(=O)NCCc1nc2ccccc2n1CCCCOc1ccc(Cl)cc1	inactive: -10.2%	
O=c1c2ccccc2n(Cc2cccc(Cl)c2)c(=O)n1CCc1ccccc1		inactive
COCc1cc(C)nc2sc3c(c12)NC(c1ccc(NC(C)=O)cc1)N(c1ccc(C)cc1)C3=O (centres undefined)	inactive: 8.5%	
COc1cccc(CNc2ncnc3onc(-c4ccc(F)cc4)c23)c1	inactive: 0.822%	
CCOC(=O)c1cc(OC(=O)c2cccc(C)c2)n(-c2ccccc2)n1		inactive
CC(=O)Nc1nonc1-c1nnc(SCC(=O)Nc2cc(C)ccc2C)n1-c1ccccc1	inactive: -4.51%	
COc1ccccc1CCNC(=O)Cc1c(C)c2ccc(O)cc2oc1=O	inactive: 1.61%	
CCOC(=O)c1ccccc1NC(=O)N1CCN2CCCCC2C1 (centres undefined)	inactive: 22.3%	
COCc1cc(C)nc2sc3c(=O)n(-c4cc(C)ccc4C)nnc3c12	inactive: 4.5%	
Cc1ccc(C)c(N2CCN(c3ncnc4onc(C)c34)CC2)c1		inactive
COc1cccc2cc(-c3nc4sc(C(=O)Nc5ccc(F)cc5F)c(C)c4c(=O)[nH]3)c(=O)oc12	inactive: 7.03%	
C[C@]12CCC3=C4CCC(=O)C=C4CC[C@@H]3[C@H]1CC[C@@]2(O)CC#N	inactive: -2.71%	
